The values below come from the supplement of paper PMC11417369.

± gives the standard deviation of the averaged measurements. This is one part of the list.

The assay concerns PfAP2-G AP2 domain (GST-tagged). Briefly: gcPBM binding intensity (ln(normalized median fluorescence intensity)); higher = stronger DNA binding. In outline:
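Each value is the highest Masliner-normalised natural-log median intensity across replicate spots of either orientation of a probe. The probes were primer-extended double-stranded 36-bp intergenic genomic sequences on an Agilent 4 × 180k array, alongside negative controls, exposed for 1 h to GST-tagged P. falciparum DNA-binding domains expressed in E. coli. Bound protein was picked up with Alexa488 anti-GST antibody and scanned at 488 nm.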
As to “TTCCTACTATTCAAACGTACAAAATATTTAAATAAT [XGTACX_site700]”, the “gcPBM binding intensity (ln)” value is 11.1 ± 0.74.

Consider “AAAACAAATGCTTAAAGTACTTATTATTTTTCTTTT [XGTACX_site6324]”, for which the “gcPBM binding intensity (ln)” value turned out to be 11.3 ± 0.52.

Regarding “TATTTCTTATTTATTTTTTAAGGAAATTAAAGATTT [CACACA_negctrl_site258]”, the “gcPBM binding intensity (ln)” value was found to be 9.77 ± 0.085.

For the sequence “CAAAATAAAAAATTCACACACATATATATATATATA [CACACA_site2088]”, the “gcPBM binding intensity (ln)” value amounted to 10.1 ± 0.59.

As for “TATTATAAAACATTATGTACATATTCTGAAAAATAG [XGTACX_site6577]”, the “gcPBM binding intensity (ln)” value amounted to 11.3 ± 0.61.

In the case of “ATAATATAATATAAAACACACATATGTACCTTCTAA [CACACA_site2761]”, the “gcPBM binding intensity (ln)” value is 10.9 ± 0.57.

For the sequence “CAAGTTCAAAATACAAGGAAGAAACAAAACTTGGCG [GTGCAC_negctrl_site600]”, the “gcPBM binding intensity (ln)” value came out at 10.13 ± 0.042.

For the sequence “AAAAAAAAAAAAAAAAGTACAAATCTTTATTTATTA [XGTACX_site3305]”, the “gcPBM binding intensity (ln)” value worked out at 11.2 ± 0.6.

“TAAAAATATCTGTATACACACATATATATATATATA [CACACA_site6042]”: the “gcPBM binding intensity (ln)” value was found to be 10.2 ± 0.4.

Take “ATATAAATCATTGGTTGTACATATAATATTTTATAA [XGTACX_site925]”: the “gcPBM binding intensity (ln)” value stood at 11.2 ± 0.76.

On to “TATTTTTACCCATAAAGTACACATAAATATAAAATA [XGTACX_site177]”, for which the “gcPBM binding intensity (ln)” value is 11.5 ± 1.

As to “TATATATCTATATATTGTACATATGTTTGTATGTGT [XGTACX_site7420]”, the “gcPBM binding intensity (ln)” value is 10.9 ± 0.57.

As to “TATATATTAGAAGATAGTACATATATATTTATTAAT [XGTACX_site1011]”, the “gcPBM binding intensity (ln)” value came to 10.7 ± 0.36.

As to “GCTCAATGTTTTACATGTACATATATATATATATAT [XGTACX_site8210]”, the “gcPBM binding intensity (ln)” value amounted to 11 ± 0.57.

As for “TGGTGATCAAAATATACATGCATATGTTCTGTTATT [TGCATGCA_site614]”, the “gcPBM binding intensity (ln)” value came to 9.73 ± 0.13.

Take “TTAATATAACTTTTTGCACACTTAATTTTTTTTTTT [CACACA_site3364]”: the “gcPBM binding intensity (ln)” value amounted to 9.925 ± 0.078.

Consider “TTATATAAAACATTAACACACAAAGAAAAAAAATTA [CACACA_site1793]”, for which the “gcPBM binding intensity (ln)” value was 10 ± 0.042.

In the case of “TATGATATCTATAATACACACATATACATAAGATCT [CACACA_site6652]”, the “gcPBM binding intensity (ln)” value worked out at 10.

Take “CAGAAATATTAATGCTGTACGGAATACATATATTTT [XGTACX_site539]”: the “gcPBM binding intensity (ln)” value was 10.9 ± 0.6.

Consider “ATTTTAATGGGACATGCATGGGACAAACTACAAATT [TGCATGCA_site853]”, for which the “gcPBM binding intensity (ln)” value is 10.6 ± 0.24.

For “AGAATATTTATATGATGTACTTATATATATATATAT [XGTACX_site3021]”, the “gcPBM binding intensity (ln)” value is 11.2 ± 0.71.

As to “TATATATTAAAACACACACACATATATATATATATA [CACACA_site3787]”, the “gcPBM binding intensity (ln)” value was found to be 9.98 ± 0.23.

For “TGAACCAGATTTAGAAGTACTAAATATTACATACAT [XGTACX_site2437]”, the “gcPBM binding intensity (ln)” value was 11 ± 0.67.

Turning to “TGTTGCAAAACAAAAAAAAAAAAAAAAAATAATAAT [CACACA_negctrl_site1642]”, the “gcPBM binding intensity (ln)” value is 9.64 ± 0.19.

For the sequence “AATAAAAACTACATGTGTACATAATAAATACATATA [XGTACX_site755]”, the “gcPBM binding intensity (ln)” value came to 11.3 ± 0.94.

For “TTTTTTCTTTTCTTTTTATTTTATTTTGTTTTATTT [CACACA_negctrl_site799]”, the “gcPBM binding intensity (ln)” value is 9.71 ± 0.11.

“TAAAAATATTTAAACTGTACTATTTTATGTTAAATG [XGTACX_site6620]”: the “gcPBM binding intensity (ln)” value is 11.3 ± 0.8.

For the sequence “ATAATCCAAAAAAATCAAATAAAATAAAATAAAATA [CACACA_negctrl_site449]”, the “gcPBM binding intensity (ln)” value was found to be 9.415 ± 0.078.

For “TTTATAATTTTAAAATGTACAAGGAGGAAAAATTCT [XGTACX_site422]”, the “gcPBM binding intensity (ln)” value stood at 10.9 ± 0.63.

In the case of “TATATAAATATTCGTAGTACAATACAATTATAAGTA [XGTACX_site3068]”, the “gcPBM binding intensity (ln)” value was 11.2 ± 0.88.

Take “TTATATTTTATATTTACACACATTTATATTTATAAA [CACACA_site203]”: the “gcPBM binding intensity (ln)” value stood at 9.86 ± 0.085.

For the sequence “CAAATGGTAAATGAAAGTACAAATTGTTTTGATTAA [XGTACX_site1536]”, the “gcPBM binding intensity (ln)” value was 10.8 ± 0.4.

For “ATATACATATTCTTGTGTACATAAAAATTTATATAT [XGTACX_site8726]”, the “gcPBM binding intensity (ln)” value worked out at 11.4 ± 0.73.

Take “AATTTGTAAAATAAGGTGCGTATAAAAAATTATATT [GTGCAC_site9676]”: the “gcPBM binding intensity (ln)” value amounted to 10.29 ± 0.057.

“ATAAACATCGGTAGTACACACATTCATGTACTTGAT [CACACA_site3037]”: the “gcPBM binding intensity (ln)” value is 11.8 ± 1.

For the sequence “ATTTAATAAAAAAAAAAAATATTGTAGAATATGATG [GTGCAC_negctrl_site195]”, the “gcPBM binding intensity (ln)” value amounted to 9.735 ± 0.021.

Take “ATTCGATGTTTTAAATGTACACAAATTGAAGGAATA [XGTACX_site409]”: the “gcPBM binding intensity (ln)” value was 11.5 ± 0.86.

Regarding “ATGTTTTCTCTTTCGGTGCATTGTTTTCTATACTTT [GTGCAC_site9483]”, the “gcPBM binding intensity (ln)” value is 10.1 ± 0.17.

“TATATATTTTTTTCAAGTACACATTACAGTTACATA [XGTACX_site2713]”: the “gcPBM binding intensity (ln)” value was found to be 11.4 ± 1.

Take “TTCTTCACATACACTTCAAAATTTGATAAAACATTA [CACACA_negctrl_site472]”: the “gcPBM binding intensity (ln)” value worked out at 10.2 ± 0.31.

With “TAATAAATAAGATTCACACATATTTAAATGTTATGC [CACACA_site5275]”, the “gcPBM binding intensity (ln)” value stood at 9.52 ± 0.23.

With “TATCTATAATATTATACACACATATATGCATAATAT [CACACA_site6175]”, the “gcPBM binding intensity (ln)” value was 10.04 ± 0.092.

For the sequence TTATTTGAATAATGTTTGCACTTAGAGTATTTTATA, the “gcPBM binding intensity (ln)” value was 9.99 ± 0.23.

For “ATATATCATAAATAAATGAAAATATTTTCTATGTGT [CACACA_negctrl_site689]”, the “gcPBM binding intensity (ln)” value was determined as 9.88 ± 0.15.

Regarding “TTTTCTTACATGAGTGTACACACTTTTTTTCAGAAA [CACACA_site70]”, the “gcPBM binding intensity (ln)” value was 11.6 ± 0.91.

“TTTATATAATTTTAATGTACATATATATATATAAAT [XGTACX_site4381]”: the “gcPBM binding intensity (ln)” value was 11.2 ± 0.74.

On to “ATGAATTGACCATATTGTACATATTTAGGACTTACC [XGTACX_site8072]”, for which the “gcPBM binding intensity (ln)” value was 11.3 ± 0.63.

For the sequence “AAATATATGAAATATACACACTTCTTTGGTATTATT [CACACA_site4414]”, the “gcPBM binding intensity (ln)” value was 9.8 ± 0.27.

On to “GTATATAATTTTTTTTTTTTTTTCATTCTTTTCCTT [CACACA_negctrl_site1780]”, for which the “gcPBM binding intensity (ln)” value is 9.53 ± 0.042.

For the sequence “ATTAAAAATATTAGTTGTACTTTATATTTTCATATA [XGTACX_site3614]”, the “gcPBM binding intensity (ln)” value amounted to 11.3 ± 1.1.

“ATATATATATAGTGTTGTACATTTAAAAATAATATA [XGTACX_site2627]”: the “gcPBM binding intensity (ln)” value came to 11.2 ± 0.78.

With “TAGAAGTACATATATGCATGTTAATTTTAAAGGAGG [TGCATGCA_site538]”, the “gcPBM binding intensity (ln)” value turned out to be 11.3 ± 0.95.

As for “AAATTCCATGAAAAAAGTACTAATTAATACAATATA [XGTACX_site2877]”, the “gcPBM binding intensity (ln)” value is 11.2 ± 0.67.

On to “TTTAAGAATTAACGGGGTACAATTCTTAAATATATA [XGTACX_site669]”, for which the “gcPBM binding intensity (ln)” value was 11.4 ± 0.98.

With “AATCAAAATAATTTAACACACAATTTTAATACTGTT [CACACA_site2375]”, the “gcPBM binding intensity (ln)” value is 9.77 ± 0.16.

For the sequence “ATGTGATAGAAGTACACACACATATGTATTTATAAT [CACACA_site5075]”, the “gcPBM binding intensity (ln)” value is 11.7 ± 1.1.
